# Test results as given in ChEMBL document CHEMBL1157539, “Thousands of chemical starting points for antimalarial lead identification” (Nature, 2010).
# The full ranking holds about 13,000 compounds; the median of “IFI” is about 4, and the highest 2% start at about 17. Some of the results follow.
# Assay: GSK_TCMDC: Inhibition Frequency Index (IFI). The number of non-kinase HTS assays where a compound showed > 50 % inhibition, expressed as a percentage of the number of such assays in which the compound was tested (-0 is zero)
# Format: functional
row,SMILES,IFI [%]
1,O=C(Nc1cccc(CN2CCCN(CC3CC3)CC2)c1)c1ccc(Cl)c(Cl)c1,2.7
2,Oc1c(Br)cc2oc3c(c2c1CNCc1ccccc1)CCCC3,4.13
3,Nc1cc2c(C3CCN(CC4CCN(C(=O)/C=C/c5ccc(Cl)c(Cl)c5)CC4)CC3)c[nH]c2cn1,6.29
4,CCCCN(CCCC)CCNC(=O)c1cc(OC(F)(F)F)ccc1O,0.74
5,COc1ccc(OCC(=O)Nc2nc(-c3ccc(OC)cc3)c(C)s2)cc1,1.85
6,Cc1cccc2nc(-c3cccc(-c4ccc(NC(=O)C5CCCO5)cc4)c3)[nH]c12 (stereo not given),5.31
7,CC(C)(C)OC(=O)N1CCC(C2CCN(C(=O)OC(C)(C)C)CC2)CC1,-0
8,COc1cc(C)ccc1N1CCN(CCCCNC(=O)c2ccc(NC(=O)c3ccc(Cl)cc3)cc2)CC1,4.5
9,CN(C)c1cc(NC(=O)Nc2ccccc2)c2ccccc2n1,4.05
10,CC(=O)c1ccc(Nc2c(C(N)=O)cnc3cc(-c4c(C)noc4C)ccc23)cc1,0.81
11,COc1ccc2c(NN=Cc3ccccc3Cl)ccnc2c1,1.42
12,Cn1ncc2c3c(CCN4CCC(NCc5cc6c(cn5)OCC6)CC4)c(Cl)cnc3ccc21,3.7
13,COc1nc(Nc2cccc(C)c2)nc(OC)n1,0.75
14,Nc1cc(/C=C/c2ccc([N+](=O)[O-])o2)nc2ccccc12,16.7
15,COc1ccccc1-c1nc2c(ccc3nc(N)nc(N)c32)[nH]1,9.76
16,O=C(NCCCCCN1CCC(c2c[nH]c3ccccc23)CC1)Nc1ccc(Cl)c(Cl)c1,3.97
17,Oc1ccc(CCNc2nc(NCCCOc3ccccc3-c3cccc(C(F)(F)F)c3)nc(N3CCNCC3)n2)cc1,10.5
18,CC(C)(C)c1ccc(NC(=O)c2ccc(CN3CCCN(Cc4cccc(Cl)c4)CC3)cc2)cc1,17.2
19,CCc1cn2c3c(cc(C(=O)N[C@@H](Cc4ccccc4)[C@H](O)CNC(C)(C)c4cccc(OC)c4)cc13)N(C)S(=O)(=O)C2,6.43
20,O=C(/C=C/c1ccc(Cl)c(Cl)c1)NCCCCCN1CCC(C(=O)Nc2ccc(Cl)c(Cl)c2)CC1,13.9

row,SMILES,IFI [%]
1,COc1ccc(-c2csc(C(=O)NC3CCC(N4CCC(c5ccccc5C)CC4)CC3)c2)cc1 (stereo not given),14
2,Cc1nnc2c(NC(=O)NC(C)C)cc3cc(-c4ccc(CN5CCCCC5)cc4)ccc3n12,10.5
3,Cc1[nH]c(C)c(-c2ccc(-c3ccc(C(F)(F)F)cc3C(F)(F)F)nc2)c(=O)c1Br,2.56
4,O=C(Nc1ccc(Cl)cc1)Nc1ccc(OCC(O)CN2CCCCC2)cc1 (stereo not given),2.04
5,COc1ccc2c(NN=CC=Cc3ccccc3)ccnc2c1,4.58
6,O=C(c1cc(-c2cccs2)n[nH]1)N1CCN(S(=O)(=O)c2ccc(Cl)s2)CC1,6.98
7,COc1cc2nc(N3CCC(CNC(=O)c4ccc(-c5ccc(C(=O)N(C)C)cc5)c(OCCO)c4)CC3)nc(N)c2cc1OC,0.91
8,CCCCCOc1ccc(C(=NC)N(CCCCC)CCCCC)c2ccccc12,25.2
9,Cc1cc(-c2cccc(CNC3CCN(C)CC3)c2)ccc1S(=O)(=O)NC1CCC1,7.48
10,CC(C)CC(C)NC(=O)C1Cc2c([nH]c3ccc(F)cc23)C2(CCN(Cc3ccccc3)CC2)N1 (stereo not given),5.8
11,CN(CCCNCc1cccc2ccccc12)CCCNCc1cccc2ccccc12,12.6
12,FC(F)(F)c1ccc2c(NCCc3ccccc3)ccnc2c1,2.22
13,CCCCCCCCc1c(C)nc(C)c(C#N)c1O,5.07
14,CC(CCCC(=O)Nc1ccc(CC(C)NCCc2cccc(Cl)c2)cc1)NCCc1cccc(Cl)c1 (stereo not given),11.9
15,CCCCCN1CCCN(Cc2cccc(NC(=O)c3ccc(Cl)c(Cl)c3)c2)CC1,5.41
16,COc1ccc(NS(=O)(=O)c2cc(NC(=O)Cn3ccccc3=O)ccc2N2CCCCC2)cc1,-0
17,Nc1nccc2ccc(OC3CCCCC3)cc12,5.41
18,CCN(CC)CCN(Cc1ccc(-c2ccc(C(F)(F)F)cc2)cc1)C(=O)Cn1cc(CCCc2cccc(F)c2F)c(=O)c2ccccc21,5.15
19,COc1cc(Cc2cnc(N)nc2N)c2ccsc2c1OC,0
20,Cc1ccc(NC(=O)Nc2ccc(Cl)c(C(F)(F)F)c2)cc1-c1ccc(C(=O)NCCN2CCOCC2)cc1,13.2

row,SMILES,IFI [%]
1,CCCNC(=O)Nc1cc2cc(-c3ccc(CN4CCCC4)cc3)ccc2n2c(C)nnc12,5.56
2,COc1ccc(CNCc2cccc(-c3ccc(-c4nc5ccccc5[nH]4)s3)c2)cc1,7.69
3,COc1cccc(-c2nn(C)c3sc(C(=O)Nc4cccnc4)cc23)c1,-0
4,CC(CN1CCN(C)CC1)C(=O)Nc1cccc(-c2cccc(-c3nc4ccccc4[nH]3)c2)c1 (stereo not given),-0
5,CC(C)Cn1ncc2c3c(N)nc(N)nc3ccc21,2.1
6,CN(CCCNC(=S)NC12CC3CC(CC(C3)C1)C2)CCCNc1ccnc2cc(Cl)ccc12,7.46
7,FC(F)(F)c1ccc2c(NCCCNc3ccnc4cc(C(F)(F)F)ccc34)ccnc2c1,3.25
8,Clc1ccc(Nc2nc(-c3ccccn3)cs2)nc1,9.59
9,CCN(CC)CCN(Cc1ccc(-c2ccc(C(F)(F)F)cc2)cc1)C(=O)Cn1c(CCc2cccc(F)c2F)c(C)c(=O)c2ccccc21,5.88
10,CC(C)CC1c2[nH]c3ccccc3c(=O)c2CN1C(=O)OC(C)(C)C (stereo not given),1.57
11,COc1cc2nc(NCC3CCCO3)n3nc(-c4ccccc4)nc3c2cc1OC (stereo not given),-0
12,O=C(Nc1cccc(-c2nn3ncccc3c2-c2ccnc(Nc3ccc(N4CCOCC4)cc3)n2)c1)c1c(F)cccc1F,5.51
13,COc1ccc(NC(=O)/C=C/c2ccc(-c3ccc(-c4noc(C)n4)cc3)cc2)cc1OCCN(C)C,2.96
14,CCCCCOc1c(CCC)cc(Cc2cnc(N)nc2N)cc1CCC,11
15,c1ccc2[nH]c(-c3ccc(-c4ccc(CNCC5CCCO5)cc4)s3)nc2c1 (stereo not given),6.86
16,Cc1cc(NC(=O)Nc2ccc3ncccc3c2)c2ccccc2n1,0.71
17,Cc1nc(C)c(-c2ccc(Sc3ccc(Cl)cc3)cc2)c(O)c1Br,3.82
18,CCCc1cc2c3c(N)nc(N)nc3ccc2n1CC,4.24
19,Nc1ccn([C@@H]2O[C@H](COC(c3ccccc3)(c3ccccc3)c3ccccc3)[C@@H](O)[C@@H]2O)c(=O)n1,0
20,CCCCCCCC1CC(CC(=O)Nc2ccnc3ccc(OC)cc23)CN1 (stereo not given),6.82
